# Reference: PubChem BioAssay AID1745853 (National Center for Advancing Translational Sciences (NCATS), 2022)
# Where “and” joins values, the source holds several entries; their conditions need not be identical. Equal values may be shown once. The list shows a part of the results. These are further read-outs of the screen, such as a control signal, another cell line or another target. No call is given for them.
# Columns and labels:
# Experiment in all cases: Primary Screen for Target Class Profiling of Small Molecule Inhibitors of Methyltransferases
# [1] = target: Glycine N-methyltransferase (Homo sapiens) (UniProt Q14749); conditions: purified enzyme, MTase-Glo SAH luminescence; measured here: GNMT inhibition; at 40 µM; stronger effect = lower value
# Summary of the method: (§1)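 Each enzyme was assayed with SAM and its substrate. SAH formation detected by MTase-Glo luminescence; single-point 40 uM screen[…].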
# [2] = target: Histamine N-methyltransferase (Homo sapiens) (UniProt P50135); conditions: purified enzyme, MTase-Glo SAH luminescence; measured here: HNMT inhibition; at 40 µM; stronger effect = lower value
# Summary of the method: as §1
# [3] = target: Guanidinoacetate N-methyltransferase (Homo sapiens) (UniProt Q14353); conditions: purified enzyme, MTase-Glo SAH luminescence; measured here: GAMT inhibition; at 40 µM; stronger effect = lower value
# Summary of the method: as §1
# [4] = target: Nicotinamide N-methyltransferase (Homo sapiens) (UniProt P40261); conditions: purified enzyme, MTase-Glo SAH luminescence; measured here: NNMT inhibition; at 40 µM; stronger effect = lower value
# Summary of the method: as §1
# [5] = target: Phenylethanolamine N-methyltransferase (Homo sapiens) (UniProt P11086); conditions: purified enzyme, MTase-Glo SAH luminescence; measured here: PNMT inhibition; at 40 µM; stronger effect = lower value
# Summary of the method: as §1
# % is set by controls: 0 for no effect and ±100 for the full control effect.
structure (smiles),measurement,setting,value
CCOC(=O)N1c2ccc(C(F)(F)F)cc2C(N(Cc2cc(C(F)(F)F)cc(C(F)(F)F)c2)C(=O)OC)CC1CC (configuration not stated),"activity change, negative = inhibition",[1],-5.16%
same,"activity change, negative = inhibition",[2],4.12%
COc1ccc(CCN2C(=O)c3cc4occc4n3CC2(C)C(=O)NC2CCCCC2C)c(OC)c1 (configuration not stated),"activity change, negative = inhibition",[1],0.459%
same,"activity change, negative = inhibition",[3],0%
same,"activity change, negative = inhibition",[2],-0.702%
same,"activity change, negative = inhibition",[4],-2.47%
same,"activity change, negative = inhibition",[5],-3.54%
COC(=O)c1cc2n(n1)CC(C)(C(=O)NC1CCCCCC1)N(c1cc(C)cc(C)c1)C2=O (configuration not stated),"activity change, negative = inhibition",[1],-0.875%
same,"activity change, negative = inhibition",[3],4.9%
same,"activity change, negative = inhibition",[2],-9.21%
same,"activity change, negative = inhibition",[4],0.17%
same,"activity change, negative = inhibition",[5],-0.271%
O=C(C(Cc1ccccc1)NS(=O)(=O)c1cccc2nsnc12)N1CCN(c2ccccn2)CC1 (configuration not stated),"activity change, negative = inhibition",[1],-0.955%
same,"activity change, negative = inhibition",[3],0.068%
same,"activity change, negative = inhibition",[2],5.69%
same,"activity change, negative = inhibition",[4],3.07%
same,"activity change, negative = inhibition",[5],1.03%
CNC(=O)Nc1ccc(OC)c(NC(=O)NC(=O)c2cc(F)c(F)cc2Cl)c1,"activity change, negative = inhibition",[1],-4.98%
same,"activity change, negative = inhibition",[3],-11.4%
same,"activity change, negative = inhibition",[2],4.66%
same,"activity change, negative = inhibition",[4],-24.4%
same,"activity change, negative = inhibition",[5],-7.6%
O=C(CNC(=O)c1cccc(C(F)(F)F)c1)N[C@@H]1CCN(Cc2ccc(Cl)cc2)C1,"activity change, negative = inhibition",[1],-0.827%
same,"activity change, negative = inhibition",[3],6.76%
same,"activity change, negative = inhibition",[2],7.74%
same,"activity change, negative = inhibition",[4],-13.1%
same,"activity change, negative = inhibition",[5],0.758%
CCCC(CCC)C(=O)NCc1ccc2c(cnn2-c2ccccc2OC)c1,"activity change, negative = inhibition",[1],-0.006%
same,"activity change, negative = inhibition",[3],4.83%
same,"activity change, negative = inhibition",[2],8.71%
same,"activity change, negative = inhibition",[4],-18.3%
same,"activity change, negative = inhibition",[5],-3.81%
CCOC(=O)c1cc2n(n1)CC(C)(C(=O)NCc1ccccc1OC)N(c1ccc(OC)cc1)C2=O (configuration not stated),"activity change, negative = inhibition",[1],1.13%
same,"activity change, negative = inhibition",[3],6.13%
same,"activity change, negative = inhibition",[2],6.96%
same,"activity change, negative = inhibition",[4],-1.07%
same,"activity change, negative = inhibition",[5],0.858%
NS(=O)(=O)OC[C@@H]1C[C@@H](n2ccc3c(N[C@H]4CCc5ccccc54)ncnc32)C[C@@H]1O,"activity change, negative = inhibition",[1],-5.31% and -14.1%
same,"activity change, negative = inhibition",[3],3.34% and -5.96%
same,"activity change, negative = inhibition",[2],-4.98% and -5.1%
same,"activity change, negative = inhibition",[4],-20.6% and -25.2%
same,"activity change, negative = inhibition",[5],-78.5% and -74.3%
COc1ccc2c(c1)c(NC(C)=O)c1n2CC(C)(C(=O)NC2CCCC2)N(Cc2cccnc2)C1=O (configuration not stated),"activity change, negative = inhibition",[1],3.03%
same,"activity change, negative = inhibition",[3],3.45%
same,"activity change, negative = inhibition",[2],10%
same,"activity change, negative = inhibition",[4],8.27%
same,"activity change, negative = inhibition",[5],2.66%
Cc1ccc(Cl)cc1N1C(=O)c2cc(C(C)C)nn2CC1(C)C(=O)NC1CCCCC1 (configuration not stated),"activity change, negative = inhibition",[1],-4.64%
same,"activity change, negative = inhibition",[3],1.5%
same,"activity change, negative = inhibition",[2],-1.51%
same,"activity change, negative = inhibition",[4],-4.32%
same,"activity change, negative = inhibition",[5],-0.816%
CCn1c(=O)c2ccnn2c2ccc(C(=O)O)cc21,"activity change, negative = inhibition",[1],0.08%
same,"activity change, negative = inhibition",[3],2.69%
same,"activity change, negative = inhibition",[2],3.46%
same,"activity change, negative = inhibition",[4],-4.92%
same,"activity change, negative = inhibition",[5],16%
FC(F)(F)c1ccc(-c2noc([C@@H]3Cc4nc[nH]c4CN3Cc3cc4ccccc4o3)n2)cc1,"activity change, negative = inhibition",[1],-8.95%
same,"activity change, negative = inhibition",[3],-8.32%
same,"activity change, negative = inhibition",[2],-8.28%
same,"activity change, negative = inhibition",[4],-11.3%
same,"activity change, negative = inhibition",[5],-9.16%
Cc1ccccc1Cn1nc2n(CC(C)C)c(=O)c3ccc(C(=O)NCC(C)C)cc3n2c1=O,"activity change, negative = inhibition",[1],8.41%
same,"activity change, negative = inhibition",[3],3.42%
same,"activity change, negative = inhibition",[2],9.19%
same,"activity change, negative = inhibition",[4],4.14%
same,"activity change, negative = inhibition",[5],7.76%
